Measured values: article PMC4336329 (PLoS ONE, 2015)
The campaign covered roughly 310,000 compounds. About 2,200 (0.71%) showed an effect of 50% or more. Effects have a minus sign here. Some of the results follow.

The molecules below were run against human ether-à-go-go-related gene (hERG) potassium channel (human, UniProt Q12809) (assay: primary screen, population patch clamp on CHO cells stably expressing hERG).
human ether-à-go-go-related gene (hERG) potassium channel, sequence (Q12809 whole entry, looked up): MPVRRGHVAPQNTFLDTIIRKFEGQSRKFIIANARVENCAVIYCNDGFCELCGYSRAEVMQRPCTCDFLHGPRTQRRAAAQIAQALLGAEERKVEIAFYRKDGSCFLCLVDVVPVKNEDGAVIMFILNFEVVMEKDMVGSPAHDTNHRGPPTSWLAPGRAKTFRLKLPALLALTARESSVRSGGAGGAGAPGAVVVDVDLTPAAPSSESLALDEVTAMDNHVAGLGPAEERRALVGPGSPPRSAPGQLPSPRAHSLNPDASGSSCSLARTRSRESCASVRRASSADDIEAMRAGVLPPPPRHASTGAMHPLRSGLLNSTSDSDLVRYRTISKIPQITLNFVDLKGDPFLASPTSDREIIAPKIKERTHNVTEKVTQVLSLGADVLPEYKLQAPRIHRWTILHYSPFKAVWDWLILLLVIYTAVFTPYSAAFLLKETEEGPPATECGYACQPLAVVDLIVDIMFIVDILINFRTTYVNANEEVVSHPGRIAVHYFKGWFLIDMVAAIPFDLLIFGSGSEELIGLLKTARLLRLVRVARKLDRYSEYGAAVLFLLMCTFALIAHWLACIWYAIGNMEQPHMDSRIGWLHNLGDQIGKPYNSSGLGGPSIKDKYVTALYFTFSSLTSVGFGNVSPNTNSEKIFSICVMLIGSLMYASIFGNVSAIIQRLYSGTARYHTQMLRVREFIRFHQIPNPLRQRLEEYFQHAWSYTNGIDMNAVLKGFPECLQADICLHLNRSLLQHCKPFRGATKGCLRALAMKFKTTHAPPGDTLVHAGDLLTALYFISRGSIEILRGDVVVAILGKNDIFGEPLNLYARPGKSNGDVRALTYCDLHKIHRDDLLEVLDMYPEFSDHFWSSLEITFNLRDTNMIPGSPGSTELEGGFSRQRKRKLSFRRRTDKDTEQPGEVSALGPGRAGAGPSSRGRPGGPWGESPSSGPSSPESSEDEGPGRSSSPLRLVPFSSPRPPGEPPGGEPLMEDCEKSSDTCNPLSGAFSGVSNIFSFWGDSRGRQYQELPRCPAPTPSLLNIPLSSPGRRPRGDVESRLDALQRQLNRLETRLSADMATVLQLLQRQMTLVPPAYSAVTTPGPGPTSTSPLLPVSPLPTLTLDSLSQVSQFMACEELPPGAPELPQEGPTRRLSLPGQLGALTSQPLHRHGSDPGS
For `CC(=O)N1CCN(C(=O)CCc2c[nH]c3ccccc23)CC1`, the “hERG current change (%, negative = inhibition) at 1uM” value was 16.2%. With `CCS(=O)(=O)n1c(Cc2cccs2)nc2ccccc21` the “hERG current change (%, negative = inhibition) at 1uM” value was 13.1%. `O=C(Nc1ccc(F)cc1)OCCOc1ccc(Br)cc1` was tested, and the “hERG current change (%, negative = inhibition) at 1uM” value was 15.5%. For `CC(C)C(c1nnnn1Cc1ccc(F)cc1)N1CCC(C(N)=O)CC1.Cl` (stereo not drawn), the “hERG current change (%, negative = inhibition) at 1uM” value was 21.7%. With `COc1ccc(NC(=S)NC23CN4CN(CN(C4)C2)C3)c(OC)c1` the “hERG current change (%, negative = inhibition) at 1uM” value was -13.8%. For `COc1ccc(/C=N/Nc2ccccc2)cc1Cn1nc(C)c([N+](=O)[O-])c1C`, the “hERG current change (%, negative = inhibition) at 1uM” value was 9.15%. For `CCN(CC)c1ccc(NC(=O)CN2CCN(CC(=O)Nc3ccc(OC)cc3)CC2)cc1`, the “hERG current change (%, negative = inhibition) at 1uM” value was -59.5%. In the case of `O=C(Nc1cccnc1Cl)C1CCCN(c2ncnc3c2nc2n3CCCCC2)C1` (stereo not drawn), the “hERG current change (%, negative = inhibition) at 1uM” value is reported as -8.45%. With `Cc1c(C(=O)Nc2ccncc2)sc2nc(-c3ccc(F)cc3)cn12` the “hERG current change (%, negative = inhibition) at 1uM” value was 2.27%. `CCN(CC)CCNC(=O)Cn1c(-c2ccccn2)nc2ccccc21` was tested, and the “hERG current change (%, negative = inhibition) at 1uM” value was -14.6%. With `CCn1c(=NC(=O)CN2C(=O)CCC2=O)sc2c(OC)ccc(OC)c21` the “hERG current change (%, negative = inhibition) at 1uM” value was 14.9%. For `O=C(c1ccc2c(=O)n(-c3ccccc3)c(=O)[nH]c2c1)N1CCN(c2ccc(F)cc2)CC1`, the “hERG current change (%, negative = inhibition) at 1uM” value was 10.3%. In the case of `CCC1CCCCN1C(=O)Nc1ccc(F)cc1` (stereo not drawn), the “hERG current change (%, negative = inhibition) at 1uM” value is reported as 21.2%. With `COc1ccc(SCC(=O)Nc2ccc(N3CCN(C)CC3)c(F)c2)cc1` the “hERG current change (%, negative = inhibition) at 1uM” value was -11.2%. With `Clc1ccc(-n2ncc3c(NCC4CCCO4)ncnc32)cc1` (stereo not drawn) the “hERG current change (%, negative = inhibition) at 1uM” value was 3.75%. In the case of `COCCN(CC(=O)Nc1ccc(F)cc1)S(=O)(=O)c1ccc(S(=O)(=O)N2CCCC2)cc1`, the “hERG current change (%, negative = inhibition) at 1uM” value is reported as 10.5%. For `O=C1CC(C(=O)N(c2ccccc2)C(C(=O)NC2CCCC2)c2ccncc2)CS1` (stereo not drawn), the “hERG current change (%, negative = inhibition) at 1uM” value was 12.4%. `NP(=O)(OCCCc1ccccc1)Oc1ccccc1Cl` (stereo not drawn) was tested, and the “hERG current change (%, negative = inhibition) at 1uM” value was 8.97%. `CSc1ccccc1C(=O)NCC(c1ccco1)N(C)C` (stereo not drawn) was tested, and the “hERG current change (%, negative = inhibition) at 1uM” value was 22.2%. In the case of `Cc1ccc(-c2nn3c(C)nnc3s2)cc1NC(=O)C(C)C`, the “hERG current change (%, negative = inhibition) at 1uM” value is reported as 14.8%. In the case of `CC(=O)O[C@]1(C)C(=O)OC/C2=C/CN(C)CCC(OC(=O)[C@@](O)(C(C)O)C[C@H]1C)C2=O` (stereo partly drawn), the “hERG current change (%, negative = inhibition) at 1uM” value is reported as 1.42%. For `NC(=O)N/N=C/c1cc(F)cc(F)c1`, the “hERG current change (%, negative = inhibition) at 1uM” value was 11.4%. For `COc1ccc(CCN2C(=S)NC3CC2(C)Oc2ccc([N+](=O)[O-])cc23)cc1OC` (stereo not drawn), the “hERG current change (%, negative = inhibition) at 1uM” value was -10.1%. With `Cc1cccc(NC(=O)NNC(=O)COc2ccc(Cl)cc2)c1` the “hERG current change (%, negative = inhibition) at 1uM” value was 11.4%.
